# Assay results taken from the supplement of paper PMC8183993.
# Several values for one entry are separate records, joined by “and”; a condition that tells them apart may be missing. Equal entries are not always repeated. Structures can show the parent of a compound that is named as a salt. ± gives the standard deviation of the averaged measurements. Whole data set: some 3,100 compounds, median “mean cytoplasmic OPP incorporation (global translation) relative to DMSO” near 100, cut for the lowest 2% near 56. The list shows a part of the results.
# Test system: U2OS
# Test: mean cytoplasmic OPP incorporation (global translation) relative to DMSO (% of DMSO); higher = more protein synthesis
# Settings: 10 µM; 24 h
# Method: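 Primary image-based screen in U2OS cells: compounds at 10 uM for 24 h, then a 1 h o-propargyl-puromycin (OPP) pulse, click labelling, and high-throughput microscopy. Mean cytoplasmic OPP intensity and nuclei count were normalised to DMSO wells within each plate (DMSO = 100) and averaged over triplicate plates.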
row,Compound,mean cytoplasmic OPP incorporation
1,C[N+]12CCC(CC1)C(OC(=O)C(O)(c1ccccc1)c1ccccc1)C2 (centres undefined) [Clidinium bromide],105
2,C[C@@]12N[C@@H](Cc3ccccc31)c1ccccc12 [(-)-MK 801 maleate],108
3,C[C@@]12N[C@@H](Cc3ccccc31)c1ccccc12 [(-)-MK 801 hydrogen maleate],99
4,"O=C1C(=O)c2ccccc2-c2ccccc21 [9,10-Phenanthrenequinone]",87.7
5,CC(=O)OCC1=C(C(=O)O)N2C(=O)[C@@H](N)[C@H]2SC1 [7-Aminocephalosporanic acid],102
6,"CC(=O)OCC1=C(C(=O)O)N2C(=O)[C@@H](N)[C@H]2SC1 [Cephalosporanic acid, 7-amino]",106
7,CO[C@]12C[C@@H](COC(=O)c3cncc(Br)c3)CN(C)[C@@H]1Cc1cn(C)c3cccc2c13 [Nicergoline],103 ± 3.5
8,Cc1cccc([C@H](C)c2c[nH]cn2)c1C [Dexmedetomidine HCl (Precedex)],93.7
9,CC1(C(=O)O)C2CCC(O2)C1(C)C(=O)O (centres undefined) [Cantharidic acid],110
10,CCCN(CCC)[C@@H]1CCc2c(OC)cccc2[C@@H]1C [(+)-UH 232 maleate],102
11,CC(C)(C)NCC(O)c1ccccc1Cl (centres undefined) [Tulobuterol],99.8
12,C[C@]12Cc3c[nH]nc3C[C@@H]1CC[C@@H]1[C@@H]2CC[C@@]2(C)[C@H]1CC[C@]2(C)O [Stanozolol],99
13,Cc1nnc2ccc(-c3cccc(C(F)(F)F)c3)nn12,95.7
14,C#C[C@]1(O)C=C[C@H]2[C@@H]3CCC4=CC(=O)CC[C@@H]4[C@H]3CC[C@@]21CC [Gestodene],92.9
15,CCNC1(c2cccs2)CCCCC1=O (centres undefined) [Tiletamine hydrochloride],102
16,C[C@@H]1CC[C@H]2[C@@H](C)C(=O)O[C@@H]3O[C@@]4(C)CC[C@@H]1[C@]32OO4 [Artemisinin],92.8 ± 2.5
17,CCC1(c2cccc(O)c2)CCCCN(C)C1 (centres undefined) [Meptazinol hydrochloride],116
18,O=C1Nc2cc(Cl)c(Cl)cc2N2CCNCC12 (centres undefined),104
19,COc1ccc(C(=O)O[C@H]2CC[C@@]3(C)[C@@H]4CC[C@H]5[C@]6(O)C[C@H](O)[C@@]7(O)[C@@H](CN8C[C@@H](C)CC[C@H]8[C@@]7(C)O)[C@]6(O)C[C@@]53O[C@]24O)cc1OC [Veratridine],108
20,CC(C)(C)NCC(O)COc1cccc2[nH]c(C#N)cc12 (centres undefined) [Cyanopindolol hemifumarate],105
21,COc1cc([C@@H]2c3cc4c(cc3[C@H](O)[C@H]3COC(=O)[C@H]23)OCO4)cc(OC)c1OC [Podophyllotoxin],84.1
22,NCCc1c[nH]c2ccc(O)cc12 [Serotonin hydrochloride],101
23,NCCc1c[nH]c2ccc(O)cc12 [Serotonin],96.8
24,CCN(C(C)=O)c1cccc(-c2ccnc3c(C#N)cnn23)c1 [Zaleplon],88.4
25,CCC(COC(=O)c1cc(OC)c(OC)c(OC)c1)(c1ccccc1)N(C)C (centres undefined) [Trimebutine],105

row,Compound,mean cytoplasmic OPP incorporation
1,C/C=C(\C)C(=O)N[C@@H](c1ccccc1)[C@@H](O)C(=O)O[C@H]1C[C@@]2(O)[C@@H](OC(=O)c3ccccc3)[C@@H]3[C@]4(OC(C)=O)CO[C@@H]4C[C@H](O)[C@@]3(C)C(=O)[C@H](OC(C)=O)C(=C1C)C2(C)C [Cephalomannine],108
2,COc1ccc(C[C@H]2NC[C@H](O)[C@H]2OC(C)=O)cc1 [Anisomycin],78.2 ± 59
3,Cc1[nH]c2ccc(Cl)cc2c1C1=CCNCC1,97.5
4,Cc1cc(SCc2sc(-c3ccc(C(F)(F)F)c(F)c3)nc2C)ccc1OCC(=O)O,101
5,NC(=O)C[S+]([O-])C(c1ccccc1)c1ccccc1 (centres undefined) [Modafinil],97.3
6,CC(C)(C)[C@]1(O)CC2OC(=O)CC23C(=O)OC2OC(=O)[C@H](O)C231 (some centres undefined) [Bilobalide],108
7,CC[C@@H]1/C=C/C=C/C[C@H](C)[C@H](O)[C@](C)(O)C(=O)[C@H](C)[C@@H](O)[C@H](C)C(=O)[C@H](C)[C@@H](O)[C@H](C)/C=C/C(=O)O[C@H]2[C@@H](C)[C@@H](CC1)O[C@@]1(CC[C@@H](C)[C@@H](C[C@H](C)O)O1)[C@@H]2C [Oligomycin A],109
8,CN1CCN(C(=O)OC2c3nccnc3C(=O)N2c2ccc(Cl)cn2)CC1 (centres undefined) [Zopiclone],96.6
9,CN[C@@H]1C[C@H]2O[C@@](C)([C@@H]1OC)n1c3ccccc3c3c4c(c5c6ccccc6n2c5c31)C(=O)NC4 [Staurosporine],123
10,Clc1ccc(C(OCCN2CCCCC2)c2ccccc2)cc1 (centres undefined) [Cloperastine hydrochloride],111
11,O=C(O[C@H]1C[N+]2(CCCOc3ccccc3)CCC1CC2)C(O)(c1cccs1)c1cccs1 [Aclidinium Bromide],97.3
12,Clc1ccccc1C(c1ccccc1)(c1ccccc1)n1cccn1,105
13,CC(=O)NC1CCSC1=O (racemic) [N-Acetyl-DL-homocysteine Thiolactone],103
14,CC(Cc1ccccc1)NCCC(c1ccccc1)c1ccccc1 (centres undefined) [Prenylamine lactate],107
15,C[C@]12CC[C@H](O)C[C@H]1CC[C@@H]1[C@@H]2C[C@@H](O)[C@]2(C)[C@@H](C3=CC(=O)OC3)CC[C@]12O [Digoxigenin],32
16,Cc1cccc(C)c1NC1=NCCCS1 [Xylazine],102
17,COc1cc2c(cc1OC)C1CC(=O)C(CC(C)C)CN1CC2 (centres undefined) [Tetrabenazine],102
18,CCCCC/C=C\C/C=C\C/C=C\C/C=C\CCCC(=O)Nc1ccc(O)cc1,107
19,CCNC(=O)[C@H]1O[C@@H](n2cnc3c(N)ncnc32)[C@H](O)[C@@H]1O,100
20,C[C@H](N)Cn1ccc2cc(F)c(Cl)cc21 [Ro 60-0175 fumarate],94.4
21,O=C(Oc1ccc([N+](=O)[O-])cc1)N1CCC(C(O)(c2ccc3c(c2)OCO3)c2ccc3c(c2)OCO3)CC1,105
22,CN1C(=O)COc2c(C(=O)NC3CN4CCC3CC4)cc(Cl)cc21 (centres undefined),99.2
23,NC(=O)CN1CCCC1=O [Piracetam],103
24,COc1cc2c(cc1OC)C(C)NCC2 (centres undefined),98.9
25,NCc1cc(O)no1 [Muscimol],98.6

row,Compound,mean cytoplasmic OPP incorporation
1,Oc1ccc2c3c1O[C@H]1c4oc5ccccc5c4C[C@@]4(O)[C@@H](C2)N(CC2CC2)CC[C@]314 [Naltriben mesylate],107
2,O=P1(NCCCl)OCCCN1CCCl (centres undefined) [Ifosfamide],105
3,COc1ccc(C(=O)c2c(C)n(CCN3CCOCC3)c3cc(I)ccc23)cc1,105
4,CCCCC/C=C\C/C=C\C/C=C\C/C=C\CCCC(=O)NCCO [Anandamide],97.9
5,CC(C)c1c(CN(C)C(C)Cc2ccccc2)n(C)n(-c2ccccc2)c1=O (centres undefined) [Famprofazone],104
6,C=C(C)[C@@H]1[C@H]2OC(=O)[C@@H]1[C@]1(O)C[C@H]3O[C@]34C(=O)O[C@H]2[C@]14C [Picrotoxinin],104
7,CC(=O)OCC(=O)[C@H]1CC[C@H]2[C@@H]3CC[C@H]4C[C@H](O)CC[C@]4(C)[C@H]3C(=O)C[C@]12C [Alfadolone acetate],107
8,N#CC(C#N)=Cc1ccc(O)cc1 [Tyrphostin 8],98.5
9,CC(C)(Cc1c[nH]c2ccc(Cl)cc12)NCCOc1ccccc1OCC1CC1,55.1
10,Cc1ccc(C[N+](C)(C)C)o1 [5-Methylfurmethiodide],94.1
11,CCCN(CCC)C1CCc2cccc(O)c2C1 (centres undefined) [8-Hydroxy-DPAT hydrobromide],104
12,c1ccc2c(c1)[I+]c1ccccc1-2 [Diphenyleneiodonium chloride],74
13,CNc1ccc2oc(C[C@H]3O[C@@]4(CC[C@H]3C)O[C@H]([C@H](C)C(=O)c3ccc[nH]3)[C@H](C)C[C@H]4C)nc2c1C(=O)O,98.9 and 94.4
14,O=C(O)c1ccc2[nH]cc(CCCCN3CC=C(c4ccccc4)CC3)c2c1 [Carmoxirole hydrochloride],104
15,CCN1C[C@]2(COC(=O)c3ccccc3N3C(=O)C[C@H](C)C3=O)CC[C@H](OC)[C@@]34[C@@H]5C[C@H]6[C@H](OC)[C@@H]5[C@](O)(C[C@@H]6OC)[C@](O)([C@@H](OC)[C@H]23)[C@@H]14 [Methyllycaconitine citrate],102
16,CCN1C[C@]2(COC)[C@H](O)C[C@H](OC)[C@@]34[C@@H]5C[C@@]6(O)[C@H](OC(=O)c7ccccc7)[C@@H]5[C@@](OC(C)=O)([C@@H]([C@H](OC)[C@H]23)[C@@H]14)[C@@H](O)[C@@H]6OC [Aconitine],102
17,CN(C)C(=O)Oc1cc(OC(=O)N(C)C)cc(C(O)CNC(C)(C)C)c1 (centres undefined) [Bambuterol hydrochloride],105
18,C[N+]1(C)[C@@H]2C[C@@H](OC(=O)[C@H](CO)c3ccccc3)C[C@H]1[C@@H]1O[C@@H]12 [Methscopolamine (Pamine)],99.5
19,C[C@]12CC[C@H](O)C[C@@H]1CC[C@@H]1[C@@H]2CC[C@]2(C)C(=O)CC[C@@H]12 [Epiandrosterone],90.1
20,C[C@]12CC[C@H](O)C[C@@H]1CC[C@@H]1[C@@H]2CC[C@]2(C)C(=O)CC[C@@H]12,95.2
21,Cn1cc(C(=O)C(=O)N[C@H]2CN3CCC2CC3)c2ccccc21,99.4
22,CCn1cc(C(=O)O)c(=O)c2cc3c(cc21)OCO3 [Oxolinic acid],95.6
23,N[C@@]1(C(=O)O)CC[C@@H](C(=O)O)C1,98.4
24,C=C(C)[C@H]1O[C@H]2CC[C@@]3(C)[C@@](O)(CC[C@H]4[C@@H]5OC(C)(C)[C@H]6C[C@@H]7C(=C)Cc8c(Cl)cc9[nH]c(c5c9c8[C@@]76O)[C@@]43C)[C@@]23O[C@H]3[C@H]1O [Penitrem A],97.4 ± 4
